In the supplement of paper PMC4723716:
± gives the uncertainty stated by the source. In all, about 9,900 compounds were measured (“viability index relative to DMSO control”: median about 1, lowest 2% from about 0.85 on). The list shows a part of the results.

Each molecule was assayed on Plasmodium falciparum NF54 stage V gametocytes (assay: viability index relative to DMSO control (fraction); higher = less gametocyte killing). Details: 2.5 µM, library set: Broad Institute DOS, incubation time: 72 h.
Method in brief: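 Compound at 2.5 µM was incubated for 72 hr at 37°C under low oxygen with P. falciparum NF54 stage V gametocytes (0.75% gametocytemia, 1.25% hematocrit, 10 µl, serum-free screening medium) in 1,536-well plates. Staining used 3 µl of 2.5 µM MitoTracker Red CMXRos plus 0.13% saponin for one to two hours, and red particles of 20–70 µm2 were counted in one imaged field per well. Each viability index is that count relative to the plate mean of solvent-only wells.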
`CN(C[C@H]1[C@@H](c2ccccc2)[C@H](CO)N1Cc1ccccn1)S(C)(=O)=O` was tested, and the viability index was 1.01 ± 0.012.
Molecule `CC(=O)N1[C@H](CO)[C@H](c2ccccc2)[C@H]1CN(CC(C)C)C(=O)c1ccccn1` has a viability index of 1.05 ± 0.058.
`O=C(c1ccccc1)N1CC(=O)N2[C@H](C1)[C@H](c1ccc(-c3ccccc3)cc1)[C@@H]2CO` showed a viability index of 0.954 ± 0.029.
`C[C@H](NC(=O)C[C@@H]1CC[C@@H]2[C@H](COC[C@@H](O)CN2Cc2ccc(C(F)(F)F)cc2)O1)c1ccccc1` gave a viability index of 0.981 ± 0.064.
Work on `C[C@@H]1CN([C@@H](C)CO)C(=O)c2cc(N(C)C)ccc2O[C@@H](C)CCCCO[C@H]1CN(C)S(=O)(=O)c1ccc(F)cc1` yielded a viability index of 1.12 ± 0.11.
For `CCCNC(=O)N1CC(=O)N2[C@H](CO)[C@@H](c3ccc(C#Cc4cccc(OC)c4)cc3)[C@@H]2C1`, the viability index was 1.03 ± 0.025.
`O=C(CC1CC1)N1[C@@H](CO)[C@@H]2c3ccccc3N(S(=O)(=O)c3ccccc3F)C[C@@H]21` gave a viability index of 1.07 ± 0.061.
Molecule `COCC#Cc1ccc([C@@H]2[C@@H](CO)N3C(=O)CN(C(=O)CN4CCOCC4)C[C@H]23)cc1` has a viability index of 1.052 ± 0.0074.
`C/C=C/c1ccc([C@H]2[C@H](CO)N3CCCCN(S(=O)(=O)c4ccc(OC)cc4)C[C@@H]23)cc1` was tested, and the viability index was 1.02 ± 0.036.
Work on `CC(C)NC(=O)N(C)C[C@@H]1Oc2c(NS(=O)(=O)c3cccs3)cccc2C(=O)N([C@H](C)CO)C[C@@H]1C` yielded a viability index of 1.005 ± 0.0077.
`C[C@@H]1CN([C@@H](C)CO)C(=O)c2cc(NC(=O)CCCN(C)C)ccc2O[C@@H]1CN(C)Cc1ccc(Cl)c(Cl)c1` gave a viability index of 0.945 ± 0.062.
Work on `C[C@@H]1CN([C@H](C)CO)C(=O)c2cc(NC(=O)Nc3cccc4ccccc34)ccc2O[C@H]1CN(C)S(=O)(=O)c1cccs1` yielded a viability index of 1.007 ± 0.0072.
Molecule `CC(=O)NC[C@@H]1[C@@H](c2ccc(-c3cccnc3)cc2)[C@@H](CO)N1C(=O)CC1CC1` has a viability index of 1.05 ± 0.09.
Work on `CO[C@H]1CN(C)C(=O)c2ccc(NC(=O)c3cccc(F)c3)cc2OC[C@@H](C)NC[C@H]1C` yielded a viability index of 1.08 ± 0.056.
For `COc1ccc2c3c([nH]c2c1)[C@@H](CO)N(Cc1ccncc1)C[C@]31CN(C1)C(=O)CN(C)C`, the viability index was 0.959 ± 0.036.
With `COc1ccc2c3c([C@H](CO)N(Cc4nccs4)C[C@]33CCN(CC3)C(=O)CN(C)C)n(C)c2c1` the viability index was 0.955 ± 0.12.
Molecule `CO[C@H](CN(C)C(=O)C1CCOCC1)[C@H](C)CN([C@@H](C)CO)S(=O)(=O)c1ccccc1` has a viability index of 1.1 ± 0.032.
Molecule `CCCNC(=O)Nc1ccc2c(c1)C(=O)N(C)C[C@H](OC)[C@@H](C)CN(C)[C@@H](C)CO2` has a viability index of 0.987 ± 0.028.
`CCC(=O)N1[C@@H]2c3ccc(-c4ccccc4OC)c(=O)n3C[C@@H]2[C@@H](CO)[C@@H]1C(=O)NCCCN(C)C` gave a viability index of 1.08 ± 0.07.
With `Cc1noc(C)c1S(=O)(=O)N(C)C[C@H]1OCc2cn(nn2)CCCC(=O)N([C@H](C)CO)C[C@H]1C` the viability index was 1.1 ± 0.039.
